Laboratory results from the RNAGym collection of RNA variant scans (doi:10.7554/elife.90254).
Read counts are not given, so values of variants with three or more changes are uncertain.

B1: LINE1-mini (parent)
chain: GGCAGAGCUCAACACAGCGUGGCAAAGUGGCUGUGGCUAGACUGCC

Variants of: B1
Assay: self-cleavage, relative activity (ratio to wild type); higher = more cleavage; in vitro, sequencing; the parent is a self-cleaving ribozyme

Q: With GGCAGAGCUCGACACAGCGUGGCAAAGGGGCUGUGGCUAGACCGCC [A11G U28G U43C] as the variant, how does the self-cleavage read?
A: 0

Q: For GGCAGAGCUCGACACAGCGGUGCAAAGUGGCUGUGGCUAGACUGCC [A11G U20G G21U], which self-cleavage is on record?
A: 0.03

Q: Which self-cleavage does the source give for GGCAGAGCUCGACACAGCGUGGCAAAGUGUCUGCGCUUAGAAUGCA [A11G G30U U34C G36C C37U C42A C46A] here?
A: 0.01

Q: For GGCAGAGCUCGACACAGCGUCGCAAAGAGGCUGUGCCUAGAAUGCC [A11G G21C U28A G36C C42A], which self-cleavage is on record?
A: 0

Q: Which self-cleavage does the source give for GGCAGAGCUCGACACAGCGAGGCAAAGUGGCUCUGGCUAGACUGCC [A11G U20A G33C] here?
A: 0.02

Q: Which self-cleavage does the source give for GGCAGAGCUCGACACAGCGUGGCAAAGUGGCGGUGGCUAGACUGUC [A11G U32G C45U] here?
A: 0

Q: Which self-cleavage does the source give for GGCAGAGCUCGACACAGCGUGGCAAAGUGGCUGCGGCUAGAAUGCC [A11G U34C C42A] here?
A: 0.04

Q: Which self-cleavage does the source give for GGCAGAGCUCGACAUACGGUGGCAAAGUGGCUGUCGAUAGACUGCC [A11G C15U G17C C18G G35C C37A] here?
A: 0

Q: With GGCAGAGCUCUCCACAGCGUGACAAAGUGGCUGUGGCUAGACUGCC [A11U A12C G22A] as the variant, how does the self-cleavage read?
A: 0.05

Q: With GGCAGAGCUCGACACAGCGUGGCAAAGUGCCGGUGGGUAGACUGCC [A11G G30C U32G C37G] as the variant, how does the self-cleavage read?
A: 0.04

Q: With GGCAGAGCUCGACACAGCGAGGCAAAGUGGCUGUGGGGAGACUGCC [A11G U20A C37G U38G] as the variant, how does the self-cleavage read?
A: 0

Q: Which self-cleavage does the source give for GGCAGAGCUCGACACAGCGUUGCAAAGUCGCUCUGGCUAGACUGCC [A11G G21U G29C G33C] here?
A: 0.01

Q: Which self-cleavage does the source give for GGCAGAGCUCGACACAGUGUCGCGAAGUGGCUGUGGCUAGACUGCC [A11G C18U G21C A24G] here?
A: 0.07

Q: Which self-cleavage does the source give for GGCAGAGCUCGACACAGCGCGGCAAAGUAGCUUUGACCAGACUGCC [A11G U20C G29A G33U G36A U38C] here?
A: 0.02

Q: For GGCAGAGCUCUCCACAGCGUGGCAAAGUGCCUGUGGCUAGACUGCC [A11U A12C G30C], which self-cleavage is on record?
A: 0.04

Q: With GGCAGAGCUCGACACAGCGUGGCAAAGUGGCUGUGCCUAGCCUGCC [A11G G36C A41C] as the variant, how does the self-cleavage read?
A: 0.03

Q: With GGCAGAGCUCGACACAGCGUGGCAAAGUGGCUGUGACUAGACGGGC [A11G G36A U43G C45G] as the variant, how does the self-cleavage read?
A: 0.04

Q: For GGCAGAGCUCGACACAGCGUGGCAAAGUGGGUGUGGCUAGACAGCC [A11G C31G U43A], which self-cleavage is on record?
A: 0

Q: Which self-cleavage does the source give for GGCAGAGCUCGACACAGCGUGGCAAAGCGCCUGUGGAUAGACUGCC [A11G U28C G30C C37A] here?
A: 0

Q: For GGCAGAGCUCGACACAGCGUGGCAAAGUGGCAGAGGCUAGACUGCC [A11G U32A U34A], which self-cleavage is on record?
A: 0.04

Q: With GGCAGAGCUCGACACAGCUUGGCAAAGUGGCUGUGGCUAGAUUGCC [A11G G19U C42U] as the variant, how does the self-cleavage read?
A: 0.01

Q: With GGCAGAGCUCGACACAGCGUGGCAAAUUGGCUGUGGCUAGACCGCC [A11G G27U U43C] as the variant, how does the self-cleavage read?
A: 0.02

Q: With GGCAGAGCUCGACACAUCGUGGCAAAGUGGCUGUGGCUAGACGGCC [A11G G17U U43G] as the variant, how does the self-cleavage read?
A: 0.03

Q: Which self-cleavage does the source give for GGCAGAGCUCGACAGUGCGUGGCAAAGUGGCUGUGGCUAGACUGAC [A11G C15G A16U C45A] here?
A: 0.05

Q: Which self-cleavage does the source give for GGCAGAGCUCGACACAGAGAGACAAAGUGGCUGUGGCUAGACUGCC [A11G C18A U20A G22A] here?
A: 0.01

Q: Which self-cleavage does the source give for GGCAGAGCUCGACACAGCGUGGCAAAGUGGCUGUGCCAAGACUGCC [A11G G36C U38A] here?
A: 0.01

Q: With GGCAGAGCUCGACACAGCGUGGCAAAGUGGCUAUGGAAGGACUGCC [A11G G33A C37A U38A A39G] as the variant, how does the self-cleavage read?
A: 0.02

Q: For GGCAGAGCUCGACACAGCGUGACAAAGUGGCUGUAGCUAGACUGUC [A11G G22A G35A C45U], which self-cleavage is on record?
A: 0.02

Q: For GGCAGAGCUCGACACAGCGUGGCAAAGUAGCUGUGGCUAGAGUGCC [A11G G29A C42G], which self-cleavage is on record?
A: 0.05

Q: Which self-cleavage does the source give for GGCAGAGCUCGACACAACGAGGCAAAGUGGCUUUGGCUAGACUGGC [A11G G17A U20A G33U C45G] here?
A: 0.01

Q: With GGCAGAGCUCGACACAUCGUGUCAAAGUGGUUGUGGCUAGAUUGCC [A11G G17U G22U C31U C42U] as the variant, how does the self-cleavage read?
A: 0.05

Q: For GGCAGAGCUCGACACAGCGUGGAAAAGUGGCUGUGGAUAGACUGCC [A11G C23A C37A], which self-cleavage is on record?
A: 0

Q: Which self-cleavage does the source give for GGCAGAGCUCUUCACAGCGUGGCAAAAUGGUUGUGGCUAGACUGCC [A11U A12U G27A C31U] here?
A: 0.03

Q: For GGCAGAGCUCGACAGAGCGUGGCAUAGUGGCUGUGGCUAGACUGCC [A11G C15G A25U], which self-cleavage is on record?
A: 0.02

Q: For GGCAGAGCUCGACACAGCAUGGCAAUGUGGCUGUCGCUAGACUGCC [A11G G19A A26U G35C], which self-cleavage is on record?
A: 0.01

Q: With GGCAGAGCUCUGCACAGCGUGGCAAAGUAGCUGUGGCUAGACUCCC [A11U A12G G29A G44C] as the variant, how does the self-cleavage read?
A: 0

Q: Which self-cleavage does the source give for GGCAGAGCUCGACACAGCGAGGCAAAGUGACUGUAGCUAGAUUGCC [A11G U20A G30A G35A C42U] here?
A: 0.01

Q: For GGCAGAGCUCGACAUAGCGUGGUAAAGGGGCUGUGGCUAGACAGCC [A11G C15U C23U U28G U43A], which self-cleavage is on record?
A: 0

Q: Which self-cleavage does the source give for GGCAGAGCUCGACACAGCGUGGCAAAGUGGCUGUUGCUCGACUGCC [A11G G35U A39C] here?
A: 0.02

Q: Which self-cleavage does the source give for GGCAGAGCUCGACACAGCGUGGCAAAGUGGCUGUGACCAGACUGCC [A11G G36A U38C] here?
A: 0.01

Q: For GGCAGAGCUCGACACAGCGUUGCAAAGUGGCUGAGGCUAGGCUGCC [A11G G21U U34A A41G], which self-cleavage is on record?
A: 0.02

Q: With GGCAGAGCUCGACACAGUGUAGCAAAGUGACUGUGGCUAGACUGCC [A11G C18U G21A G30A] as the variant, how does the self-cleavage read?
A: 0.02

Q: For GGCAGAGCUCGACACAGCGUGGAAAAGUGGCUGUGGCUAGACUGGC [A11G C23A C45G], which self-cleavage is on record?
A: 0.03

Q: With GGCAGAGCUCGACACAACGUGGCAAAGUGGAUGUGACUAGACUGCC [A11G G17A C31A G36A] as the variant, how does the self-cleavage read?
A: 0.03

Q: Which self-cleavage does the source give for GGCAGAGCUCGACACAGCGUGGCAAAGUGGUUGUGGCUAGACUCCC [A11G C31U G44C] here?
A: 0.01

Q: Which self-cleavage does the source give for GGCAGAGCUCGACACAGCGUGGCAAAGUGGCUGUGGCGUGACUGCC [A11G U38G A39U] here?
A: 0.01

Q: For GGCAGAGCUCGACACAGCCUGGCAAAUUGGCUGUGGCUAGACUGCC [A11G G19C G27U], which self-cleavage is on record?
A: 0.01

Q: For GGCAGAGCUCGACACAGCGUGGCAAAAUGGCUGUGGCAAAACUGCC [A11G G27A U38A G40A], which self-cleavage is on record?
A: 0

Q: With GGCAGAGCUCGACACAGCGUGGCAAAGUGGCUGUUGCUAGACCGCC [A11G G35U U43C] as the variant, how does the self-cleavage read?
A: 0.03

Q: With GGCAGAGCUCGACACAGCGUGGCAAAGUUGCUGUCGCUAGACUGCC [A11G G29U G35C] as the variant, how does the self-cleavage read?
A: 0.05

Q: Which self-cleavage does the source give for GGCAGAGCUCGACAAAGCGUGGCAAAGUGGCUCGGGUUAGACUGCC [A11G C15A G33C U34G C37U] here?
A: 0.01

Q: With GGCAGAGCUCUUCACAGCGUGGCAAAGUGGCUGUGGAAAGGCUGCC [A11U A12U C37A U38A A41G] as the variant, how does the self-cleavage read?
A: 0.01

Q: With GGCAGAGCUCGACACAGCGUGGCAAAGUGACUUUGGCUAGACCGCG [A11G G30A G33U U43C C46G] as the variant, how does the self-cleavage read?
A: 0

Q: Which self-cleavage does the source give for GGCAGAGCUCUGCACAGCGUGGCAAAGUGGCUAUGGCUAGACUGCC [A11U A12G G33A] here?
A: 0.02

Q: Which self-cleavage does the source give for GGCAGAGCUCGACACAGCGUGGCAAAGUAGUUGUGGCUAGACUGCC [A11G G29A C31U] here?
A: 0.03

Q: For GGCAGAGCUCGACACAGCGUGGCAAAGUGGCUGUGACUAGUCUGCC [A11G G36A A41U], which self-cleavage is on record?
A: 0.01
